The assay concerns Colletotrichum orbiculare. To be noted: in vivo.
For the molecule `CCn1c(-c2c(F)cc(F)cc2F)c(-n2cc(C(F)F)cn2)cc(Cl)c1=O` [Compound 124], the “Test H control value” is on record as “H (key: H shows the control value more than 50%; L shows the control value of 50% or less)”.
In the case of `CCn1c(-c2c(F)cc(F)cc2F)c(-n2c(C)ccc2C)cc(Cl)c1=O` [Compound 125], the “Test H control value” was “H (key: H shows the control value more than 50%; L shows the control value of 50% or less)”.
Next, `CCn1c(-c2c(F)cc(OC)cc2F)c(-n2c(C)ccc2C)cc(Cl)c1=O` [Compound 126]: “H (key: H shows the control value more than 50%; L shows the control value of 50% or less)”; `CCn1c(-c2c(F)cc(OC)cc2F)c(-c2ocnc2F)cc(Cl)c1=O` [Compound 127]: “H (key: H shows the control value more than 50%; L shows the control value of 50% or less)”; `CCn1c(-c2c(F)cc(F)cc2F)c(-n2cc(OC)cn2)cc(Cl)c1=O` [Compound 128]: “L (key: H shows the control value more than 50%; L shows the control value of 50% or less)”.
As for `CCOC(=O)c1cncn1-c1cc(Cl)c(=O)n(CC)c1-c1c(F)cc(F)cc1F` [Compound 129], the “Test H control value” is on record as “L (key: H shows the control value more than 50%; L shows the control value of 50% or less)”.
For `CCn1c(-c2c(F)cccc2F)c(-c2cnc(OC)o2)cc(Cl)c1=O` [Compound 130] the value was “L (key: H shows the control value more than 50%; L shows the control value of 50% or less)”; for `CCn1c(-c2c(F)cccc2F)c(-c2cnc(N(C)C)o2)cc(Cl)c1=O` [Compound 131], “L (key: H shows the control value more than 50%; L shows the control value of 50% or less)”; for `CCn1c(-c2c(F)cc(F)cc2F)c(-n2cccc2)cc(Cl)c1=O` [Compound 132], “H (key: H shows the control value more than 50%; L shows the control value of 50% or less)”.
For `CCn1c(-c2c(F)cc(F)cc2F)c(-n2c(Cl)ccc2Cl)cc(Cl)c1=O` [Compound 133] the value was “H (key: H shows the control value more than 50%; L shows the control value of 50% or less)”; for `CCn1c(-c2c(F)cccc2F)c(-c2cnc(NC)o2)cc(Cl)c1=O` [Compound 134], “L (key: H shows the control value more than 50%; L shows the control value of 50% or less)”.
Consider `CCn1c(-c2c(F)cccc2F)c(-c2cnc(N)o2)cc(Cl)c1=O` [Compound 135], for which the “Test H control value” was “L (key: H shows the control value more than 50%; L shows the control value of 50% or less)”.
For `CCn1c(-c2c(F)cc(F)cc2F)c(-n2c(Cl)nc(Cl)c2Cl)cc(Cl)c1=O` [Compound 137] the value was “H (key: H shows the control value more than 50%; L shows the control value of 50% or less)”; for `CCn1c(-c2c(F)cc(F)cc2F)c(-n2cnc(Cl)c2Cl)cc(Br)c1=O` [Compound 139], “H (key: H shows the control value more than 50%; L shows the control value of 50% or less)”; for `CCn1c(-c2c(F)cc(F)cc2F)c(-n2cc(Cl)c(C)n2)ccc1=O` [Compound 141], “H (key: H shows the control value more than 50%; L shows the control value of 50% or less)”.
Next, `CCn1c(-c2c(F)cc(F)cc2F)c(-n2cc(Cl)c(C)n2)cc(Cl)c1=O` [Compound 142]: “H (key: H shows the control value more than 50%; L shows the control value of 50% or less)”.
For `CCn1c(-c2c(F)cc(OC)cc2F)c(-n2cc(Cl)c(C)n2)cc(Cl)c1=O` [Compound 143] the value was “H (key: H shows the control value more than 50%; L shows the control value of 50% or less)”; for `CCn1c(-c2c(F)cc(F)cc2F)c(-n2cc(Cl)c(C)n2)cc(Br)c1=O` [Compound 144], “L (key: H shows the control value more than 50%; L shows the control value of 50% or less)”.
`CCn1c(-c2ccc(F)cc2F)c(-n2cc(Cl)cn2)ccc1=O` [Compound 145]: the “Test H control value” is “H (key: H shows the control value more than 50%; L shows the control value of 50% or less)”.
For `CCn1c(-c2c(F)cc(OC)cc2F)c(-n2cc(Cl)c(C)n2)cc(Br)c1=O` [Compound 146] the value was “H (key: H shows the control value more than 50%; L shows the control value of 50% or less)”.
With `CCn1c(-c2c(F)cc(F)cc2F)c(-n2cc(Br)c(C)n2)cc(Br)c1=O` [Compound 147], the “Test H control value” is “L (key: H shows the control value more than 50%; L shows the control value of 50% or less)”.
Take `CCn1c(-c2ccc(F)cc2F)c(-n2cc(Cl)cn2)cc(Cl)c1=O` [Compound 148]: the “Test H control value” is “H (key: H shows the control value more than 50%; L shows the control value of 50% or less)”.
For the molecule `CCn1c(-c2ccc(OC)cc2F)c(-n2cc(Cl)cn2)cc(Cl)c1=O` [Compound 149], the “Test H control value” is listed as “H (key: H shows the control value more than 50%; L shows the control value of 50% or less)”.
On to `CCn1c(-c2ccc(F)cc2F)c(-n2cc(Cl)cn2)cc(Br)c1=O` [Compound 150], for which the “Test H control value” was “H (key: H shows the control value more than 50%; L shows the control value of 50% or less)”.
For `CCn1c(-c2c(F)cc(OC)cc2F)c(-n2cc(Br)c(C)n2)cc(Br)c1=O` [Compound 151], the “Test H control value” is “L (key: H shows the control value more than 50%; L shows the control value of 50% or less)”.
As for `CCn1c(-c2ccc(OC)cc2F)c(-n2cc(Cl)cn2)cc(Br)c1=O` [Compound 152], the “Test H control value” is given as “H (key: H shows the control value more than 50%; L shows the control value of 50% or less)”.
Next, `CCn1c(-c2c(F)cccc2F)c(-n2ncc(C)c2Cl)ccc1=O` [Compound 153]: “H (key: H shows the control value more than 50%; L shows the control value of 50% or less)”.
For the molecule `CCn1c(-c2c(F)cc(F)cc2F)c(-n2cc(C(F)(F)F)cn2)cc(C(F)(F)F)c1=O` [Compound 154], the “Test H control value” is “L (key: H shows the control value more than 50%; L shows the control value of 50% or less)”.
For `CCn1c(-c2c(F)cc(F)cc2F)c(-n2cc(C(F)(F)F)cn2)cc(Cl)c1=O` [Compound 155] the value was “H (key: H shows the control value more than 50%; L shows the control value of 50% or less)”.
For `CCn1c(-c2ccc(F)cc2Cl)c(-n2cc(Cl)cn2)ccc1=O` [Compound 156] the value was “H (key: H shows the control value more than 50%; L shows the control value of 50% or less)”; for `CCn1c(-c2ccc(F)cc2Cl)c(-n2cc(Cl)cn2)cc(Cl)c1=O` [Compound 157], “H (key: H shows the control value more than 50%; L shows the control value of 50% or less)”.
Next, `CCn1c(-c2ccc(F)cc2Cl)c(-n2cc(Cl)cn2)cc(Br)c1=O` [Compound 158]: “H (key: H shows the control value more than 50%; L shows the control value of 50% or less)”; `CCn1c(-c2ccc(OC)cc2Cl)c(-n2cc(Cl)cn2)cc(Cl)c1=O` [Compound 159]: “H (key: H shows the control value more than 50%; L shows the control value of 50% or less)”; `CCn1c(-c2c(F)cc(F)cc2F)c(-n2cc(I)cn2)cc(Cl)c1=O` [Compound 160]: “L (key: H shows the control value more than 50%; L shows the control value of 50% or less)”.
Take `CCn1c(-c2c(F)cc(F)cc2F)c(-n2cc([N+](=O)[O-])cn2)cc(Cl)c1=O` [Compound 161]: the “Test H control value” is “L (key: H shows the control value more than 50%; L shows the control value of 50% or less)”.
Next, `CCn1c(-c2c(F)cccc2F)c(-c2ncc(OC)o2)cc(Cl)c1=O` [Compound 162]: “L (key: H shows the control value more than 50%; L shows the control value of 50% or less)”; `CCn1c(-c2c(F)cc(F)cc2F)c(-n2cc(NC(C)=O)cn2)cc(Cl)c1=O` [Compound 163]: “L (key: H shows the control value more than 50%; L shows the control value of 50% or less)”; `CCn1c(-c2ccc(F)cc2Br)c(-n2cc(Cl)cn2)ccc1=O` [Compound 164]: “H (key: H shows the control value more than 50%; L shows the control value of 50% or less)”.
Next, `CCn1c(-c2ccc(F)cc2Br)c(-n2cc(Cl)cn2)cc(Cl)c1=O` [Compound 165]: “H (key: H shows the control value more than 50%; L shows the control value of 50% or less)”.
For `CCn1c(-c2ccc(F)cc2Br)c(-n2cc(Cl)cn2)cc(Br)c1=O` [Compound 166] the value was “H (key: H shows the control value more than 50%; L shows the control value of 50% or less)”; for `CCn1c(-c2ccc(OC)cc2Br)c(-n2cc(Cl)cn2)cc(Cl)c1=O` [Compound 167], “H (key: H shows the control value more than 50%; L shows the control value of 50% or less)”; for `CCn1c(-c2ccc(F)cc2C)c(-n2cc(Cl)cn2)ccc1=O` [Compound 168], “H (key: H shows the control value more than 50%; L shows the control value of 50% or less)”.
Turning to `CCn1c(-c2ccccc2Cl)c(-n2cc(Cl)cn2)ccc1=O` [Compound 169], the “Test H control value” is “H (key: H shows the control value more than 50%; L shows the control value of 50% or less)”.
For `CCn1c(-c2ccc(F)cc2C)c(-n2cc(Cl)cn2)cc(Cl)c1=O` [Compound 170] the value was “H (key: H shows the control value more than 50%; L shows the control value of 50% or less)”; for `CCn1c(-c2ccc(F)cc2C)c(-n2cc(Cl)cn2)cc(Br)c1=O` [Compound 171], “L (key: H shows the control value more than 50%; L shows the control value of 50% or less)”.
Next, `CCn1c(-c2ccccc2Cl)c(-n2cc(Cl)cn2)cc(Cl)c1=O` [Compound 172]: “H (key: H shows the control value more than 50%; L shows the control value of 50% or less)”; `CCn1c(-c2ccccc2Cl)c(-n2cc(Cl)cn2)cc(Br)c1=O` [Compound 173]: “H (key: H shows the control value more than 50%; L shows the control value of 50% or less)”.
For `Cn1c(-c2c(F)cc(F)cc2F)c(-n2cc(Cl)cn2)ccc1=O` [Compound 174] the value was “H (key: H shows the control value more than 50%; L shows the control value of 50% or less)”.
